# Test results from the supplement of paper PMC7826260.
# Some of the results follow. Viral Rep nickase domains cut single-stranded DNA in vitro for 1 h at 37 °C with 3 µM enzyme; only the middle of the 90-letter strands is printed. The score is log2 (uncut reads / reads without enzyme); uncut sequences lie near 0, cut ones below; no hit call is given. Shares of all reads are compared, so uncut sequences can rise above 0 when many others are cut.
# Experiments:
# Test in all cases: uncleaved DNA left, log2 of reads against the no-enzyme library (log2 ratio); higher = less cleavage (more negative = more Rep cleavage of the k-mer); sequences stand for … in CTCGTCCG…ACCGGAGA
# [1] = tested on: T1, Rep nickase domain of Muscovy duck circovirus
# T1 sequence (residues 1-111 of Rep, tag left off): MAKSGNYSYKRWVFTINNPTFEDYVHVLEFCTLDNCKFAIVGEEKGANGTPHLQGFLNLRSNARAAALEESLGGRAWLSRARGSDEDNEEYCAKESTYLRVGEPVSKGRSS
# Description: (§1)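 A pool of 90-nt single-stranded DNAs with seven random bases just before the constant AC of the nick site (name = the seven bases) was cut by 3 µM recombinant His6-SUMO-tagged Rep nickase domain (300 nM DNA, 50 mM HEPES pH 8.0, 50 mM NaCl, 1 mM MnCl2, 1 h, 37 °C, three replicates). Uncut DNA was amplified and sequenced.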
# [2] = tested on: T2, Rep nickase domain of banana bunchy top virus
# T2 sequence (residues 1-94 of Rep, tag left off): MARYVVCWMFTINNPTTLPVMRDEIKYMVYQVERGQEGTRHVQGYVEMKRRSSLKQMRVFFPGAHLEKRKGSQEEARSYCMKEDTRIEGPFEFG
# Description: as §1
# [3] = tested on: T3, Rep nickase domain of cabbage leaf curl virus
# T3 sequence (residues 1-116 of Rep, tag left off): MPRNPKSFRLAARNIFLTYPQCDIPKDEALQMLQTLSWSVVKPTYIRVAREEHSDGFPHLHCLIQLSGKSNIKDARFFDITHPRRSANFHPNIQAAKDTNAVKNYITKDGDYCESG
# Description: as §1
# [4] = tested on: T4, Rep nickase domain of chickpea chlorotic dwarf virus
# T4 sequence (residues 1-124 of Rep, tag left off): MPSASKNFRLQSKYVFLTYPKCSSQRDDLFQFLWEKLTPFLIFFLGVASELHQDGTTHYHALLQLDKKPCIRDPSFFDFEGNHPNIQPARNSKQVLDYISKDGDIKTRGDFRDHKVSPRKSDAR
# Description: as §1
# [5] = tested on: T5, Rep nickase domain of faba bean necrotic yellows virus
# T5 sequence (residues 1-98 of Rep, tag left off): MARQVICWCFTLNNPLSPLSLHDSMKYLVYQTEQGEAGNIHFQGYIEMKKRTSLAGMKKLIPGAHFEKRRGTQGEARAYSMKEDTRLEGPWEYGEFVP
# Description: as §1
# [6] = tested on: T6, Rep nickase domain of maize striate mosaic virus
# T6 sequence (residues 1-117 of Rep, tag left off): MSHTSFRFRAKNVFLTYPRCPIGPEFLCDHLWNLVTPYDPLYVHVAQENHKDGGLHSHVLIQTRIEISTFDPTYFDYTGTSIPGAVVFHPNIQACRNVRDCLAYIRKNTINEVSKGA
# Description: as §1
# [7] = tested on: T7, Rep nickase domain of porcine circovirus 2
# T7 sequence (residues 2-116 of Rep, tag left off): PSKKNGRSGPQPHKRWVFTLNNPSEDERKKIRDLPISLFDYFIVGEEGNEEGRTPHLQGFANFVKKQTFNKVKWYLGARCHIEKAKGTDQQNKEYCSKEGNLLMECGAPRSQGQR
# Description: as §1
# [8] = tested on: T8, Rep nickase domain of tomato golden mosaic virus
# T8 sequence (residues 1-124 of Rep, tag left off): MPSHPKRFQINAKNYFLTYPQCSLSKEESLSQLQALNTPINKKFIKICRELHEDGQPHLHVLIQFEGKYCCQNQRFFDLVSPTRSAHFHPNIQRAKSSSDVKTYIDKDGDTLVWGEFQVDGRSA
# Description: as §1
# [9] = tested on: T9, Rep nickase domain of tomato yellow leaf curl virus
# T9 sequence (residues 1-136 of Rep, tag left off): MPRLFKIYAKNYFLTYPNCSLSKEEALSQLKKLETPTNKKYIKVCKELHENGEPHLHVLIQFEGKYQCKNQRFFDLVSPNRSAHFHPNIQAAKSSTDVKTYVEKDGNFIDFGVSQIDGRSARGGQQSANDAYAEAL
# Description: as §1
# [10] = tested on: T10, Rep nickase domain of wheat dwarf virus
# T10 sequence (residues 1-137 of Rep, tag left off): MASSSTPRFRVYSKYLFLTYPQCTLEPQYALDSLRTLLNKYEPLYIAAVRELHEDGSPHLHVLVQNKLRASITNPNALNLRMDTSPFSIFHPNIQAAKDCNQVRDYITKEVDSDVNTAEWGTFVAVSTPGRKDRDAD
# Description: as §1
Sequence,uncleaved DNA left (log2) [1],uncleaved DNA left (log2) [2],uncleaved DNA left (log2) [3],uncleaved DNA left (log2) [4],uncleaved DNA left (log2) [5],uncleaved DNA left (log2) [6],uncleaved DNA left (log2) [7],uncleaved DNA left (log2) [8],uncleaved DNA left (log2) [9],uncleaved DNA left (log2) [10]
GAGCCCT,0.0551,0.0973,0.319,-0.351,-0.0236,1.05,-1.02,0.0722,0.198,0.0837
AGAGGGT,0.0541,0.106,0.337,1.49,-0.0019,1.89,0.222,0.143,-0.0288,-0.0535
TCCCTCA,-0.0452,-0.0224,-0.0701,-1.07,-0.0707,-0.22,-0.196,-0.0795,-0.076,-0.0274
CGCAGCG,-0.00933,0.0139,-0.732,-0.648,0.00187,-0.95,0.0788,0.0182,0.0397,-0.0709
TCAACGG,0.139,0.0958,0.659,1.58,0.0938,2.07,0.203,0.171,-0.0757,0.148
ATGTGTA,-0.126,-0.0979,-0.241,-0.848,0.0029,-0.476,-0.928,-0.00842,-0.0665,-0.0249
TGGAGAT,0.0891,0.122,0.606,1.93,0.0579,2.06,0.237,0.0808,0.0201,0.11
GGAAATA,0.0431,0.105,0.758,1.75,0.0327,2.05,0.221,0.00339,0.0898,0.162
ATGTTTA,-0.0665,-0.207,-0.319,-1.81,-0.119,-0.61,-0.547,-0.000529,-0.0913,-0.195
CGATCTC,-0.0271,0.000279,-0.0734,0.201,-0.0851,0.856,-0.012,-0.109,-0.00845,0.0796
GAGTGCC,0.0854,-0.0559,0.0888,0.185,-0.0328,-0.116,-0.698,-0.0926,0.051,0.00752
GGCGGCG,-0.0476,0.0663,-0.322,-0.289,0.114,-0.229,0.195,0.16,0.0646,-0.0193
CTTAAGT,0.0891,0.092,-0.0934,-0.535,0.0421,-1.02,-0.0555,-0.0154,0.111,-0.103
GTCACCA,-0.0318,0.132,0.335,0.838,0.0586,1.68,0.0768,0.0291,0.103,0.136
TCCGATC,0.0354,-0.0379,0.181,0.082,-0.0411,-0.11,0.122,-0.11,-0.0933,0.0621
TGGGAAT,0.133,0.149,0.772,2.04,0.126,2.25,0.139,0.11,0.0272,0.222
GCCGGAT,0.111,-0.111,0.202,1.45,0.0814,1.75,0.223,0.161,-0.206,0.074
CTTCTTT,-0.0245,-0.0791,-0.221,-2.32,0.0083,-0.768,-0.53,-0.143,0.0313,-0.114
CCGATTG,0.0443,-0.105,-0.0271,0.621,-0.0508,1.14,-0.0621,-0.0759,-0.193,-0.105
AGCTGGC,0.0954,0.0141,-0.0158,0.802,-0.0347,0.202,0.15,0.0717,-0.0195,0.0249
GCCTCGC,-0.0262,0.0752,-0.252,-0.0386,0.0188,-0.491,0.0608,0.0176,0.0282,-0.0452
ACCGGCA,-0.179,0.0336,-0.173,-0.111,-0.0787,-0.774,0.0789,-0.0742,-0.0208,-0.103
TCATTGA,0.041,-0.0124,-0.559,-0.617,-0.00574,-1.1,0.137,-0.0398,0.0806,-0.0289
ACTAGGT,0.0767,0.0437,0.344,0.562,0.0731,0.0944,-0.11,0.149,0.0686,0.0483
AGAGGGG,0.14,0.151,0.508,0.941,0.178,0.826,0.394,0.188,0.0429,0.212
TACTGCC,0.0131,-0.0509,-0.201,-0.135,0.105,-0.207,-0.0615,-0.0489,0.00359,0.0213
CCCGATC,-0.0261,-0.105,0.228,0.256,0.0588,-0.202,-0.0711,0.199,0.0654,-0.105
TGACCCA,0.0909,0.104,0.362,0.554,0.239,1.57,0.0662,-0.00107,0.174,-0.0722
ATCCCGG,0.0905,0.0475,0.414,1.24,0.0469,1.15,0.0555,0.153,-0.0314,0.109
TTCAGAT,-0.0575,-0.0517,0.238,0.659,-0.0883,1.3,0.0825,-0.0298,-0.242,-0.0818
